This note sets out measurements from paper PMC6212790.

The other results are listed elsewhere or left out. At the low end of the ranking, values are background and their order means little.

The assay deals with T1, GST-Rok-C97-191 (UniProt O34857).
T1 sequence: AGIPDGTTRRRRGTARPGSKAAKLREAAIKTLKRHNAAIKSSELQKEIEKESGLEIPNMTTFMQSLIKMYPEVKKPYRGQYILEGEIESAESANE
As to the kind of experiment: protein binding microarray.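 Further: rank score from −0.5 (least bound) to 0.5 (best bound).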 The settings on record: Rok is a gene silencer of Bacillus subtilis; high values mean tight binding; most listed sequences are background and not binding sites; double strand, one strand shown.
Consider CAAATCTA, for which the binding signal was 0.354 E-score.

Regarding ACATGTAG, the binding signal was found to be 0.315 E-score.

Turning to CACGGGGA, the binding signal is -0.0963 E-score.

CGCCTAAA returned a binding signal of -0.29 E-score.

With AACCCCGC, the binding signal was -0.32 E-score.

On to TCAGCCAA, for which the binding signal is -0.109 E-score.

In turn, CTTGAGAC showed a binding signal of -0.225 E-score.

For ATAACTGG, the binding signal came out at 0.119 E-score.

As to CAGGTTTA, the binding signal is -0.216 E-score.

The sequence ACAAGACA had a binding signal of -0.115 E-score.

The sequence ATTCCCAC displayed a binding signal of -0.00231 E-score.

As to AGACGGCT, the binding signal was -0.0565 E-score.

AGTTCCAC: the binding signal is 0.0477 E-score.

Consider CGGGTTGA, for which the binding signal is -0.0983 E-score.

Sequence CCCTCTGA returned a binding signal of -0.142 E-score.

The sequence CGTTCCTC returned a binding signal of -0.0882 E-score.

Sequence ATCAGGGC came in with a binding signal of -0.0371 E-score.

Consider GCTTAGCA, for which the binding signal is -0.0495 E-score.

Regarding GCACAGGA, the binding signal was -0.132 E-score.

For AACCCCGG, the binding signal is -0.193 E-score.

Consider ATGGCGAC, for which the binding signal was -0.149 E-score.

In the case of TCCTCCAA, the binding signal was -0.134 E-score.

ACCAGACA: the binding signal was -0.155 E-score.

In turn, TGTGGAAA had a binding signal of -0.162 E-score.

AAGTACTT gave a binding signal of 0.325 E-score.

In the case of CCCGGAGG, the binding signal was -0.392 E-score.

Turning to AGGAGCTG, the binding signal is -0.169 E-score.

For the sequence CATTCCAA, the binding signal was -0.0539 E-score.

In the case of CTTACTGC, the binding signal was determined as 0.194 E-score.

Take CATTTACG: the binding signal worked out at 0.0408 E-score.

Take CGGAGACG: the binding signal is -0.133 E-score.

For ATACGGCG, the binding signal is -0.174 E-score.

ACGGACCA returned a binding signal of -0.109 E-score.

The sequence ACACTGAA had a binding signal of -0.0457 E-score.

Regarding AGAGCGGG, the binding signal is -0.201 E-score.

Regarding TAGAAATA, the binding signal came out at 0.416 E-score.

As to GATGGATA, the binding signal is 0.0398 E-score.

Take GCCAGGTA: the binding signal was -0.0542 E-score.

For CTCTCCAG, the binding signal is -0.364 E-score.

As to CAAAGGAG, the binding signal is -0.156 E-score.

GAGGAGCA had a binding signal of -0.331 E-score.

Sequence ACACCGTG returned a binding signal of -0.304 E-score.

Take CGCACTAG: the binding signal came out at 0.11 E-score.

For TGGAGCAA, the binding signal was -0.0416 E-score.

As to TGTGTTAA, the binding signal was -0.0612 E-score.

TATGTAAA displayed a binding signal of 0.295 E-score.

TGTCAGAA had a binding signal of -0.000524 E-score.

For the sequence AGGCATTC, the binding signal is -0.183 E-score.

The sequence GAGCTGCA yielded a binding signal of -0.0345 E-score.

The sequence CCCCCCAC returned a binding signal of -0.291 E-score.

In turn, AGGGCCCC returned a binding signal of -0.412 E-score.

CCCGGCCA had a binding signal of -0.346 E-score.

The sequence TGAGTACA yielded a binding signal of 0.0908 E-score.

ACGCGATG: the binding signal stood at 0.0782 E-score.

The sequence CGAAATTC showed a binding signal of 0.254 E-score.

Turning to GATGTGCA, the binding signal was -0.0513 E-score.

The sequence CACGTTGG displayed a binding signal of -0.00278 E-score.

Take AGCCAGTA: the binding signal is -0.181 E-score.

Sequence AGCAATAT yielded a binding signal of 0.228 E-score.

In turn, ACCTTCCC displayed a binding signal of -0.197 E-score.

ACCGTAGG returned a binding signal of -0.217 E-score.

Sequence ATGAGCTC returned a binding signal of -0.186 E-score.

In the case of ATGCCGAC, the binding signal was -0.152 E-score.

Regarding AGCGGTGG, the binding signal was -0.137 E-score.

Take AATCTTGC: the binding signal is -0.0586 E-score.

As for AAATGTAG, the binding signal is 0.286 E-score.

AAACATCG showed a binding signal of -0.13 E-score.

On to CCCTGAAA, for which the binding signal was -0.0357 E-score.

Take CCCACCGC: the binding signal was -0.257 E-score.

With AATCTTAA, the binding signal amounted to 0.104 E-score.

ACGGAACG: the binding signal was -0.0415 E-score.

Take GCATGCGA: the binding signal was -0.374 E-score.

As to CGATAGAC, the binding signal is 0.063 E-score.

On to AAGAGTCT, for which the binding signal was -0.0684 E-score.

The sequence TCCCTAGA had a binding signal of 0.0553 E-score.

AACGGCGA displayed a binding signal of -0.284 E-score.

As to CACAACTG, the binding signal was -0.115 E-score.

TACGCCGA came in with a binding signal of -0.215 E-score.

GCAAGGAC: the binding signal is -0.146 E-score.

On to GACGTTCC, for which the binding signal was -0.148 E-score.

For AAACATAA, the binding signal stood at 0.23 E-score.

In turn, CGTTCTCA yielded a binding signal of 0.119 E-score.

With GTAGCGTA, the binding signal is 0.275 E-score.

As for CCTCTGCG, the binding signal was -0.162 E-score.

As to AGTAGATA, the binding signal came to 0.456 E-score.

Take CGCGATGC: the binding signal is -0.174 E-score.

As for AATTTCCT, the binding signal was 0.16 E-score.

Regarding GGAACTCC, the binding signal is -0.0369 E-score.

Turning to ATTACCAA, the binding signal came to 0.333 E-score.

The sequence CTAGCTTC returned a binding signal of 0.12 E-score.

ACAACTTG gave a binding signal of 0.173 E-score.

Turning to CGCTGCGC, the binding signal is -0.18 E-score.

Sequence AGGACATA displayed a binding signal of 0.0835 E-score.

TCGCTTAA came in with a binding signal of 0.0476 E-score.

The sequence CCGTCTTC came in with a binding signal of -0.0841 E-score.

Take ACCAATAG: the binding signal came to 0.123 E-score.

The sequence CTCCCCGA returned a binding signal of -0.265 E-score.

With CCGAAGTC, the binding signal was -0.0808 E-score.

Sequence TACACCGA had a binding signal of -0.0823 E-score.

For the sequence GAGCGGCA, the binding signal was -0.331 E-score.

Take AAGGCTGG: the binding signal was -0.169 E-score.

Sequence AGAAGTGC gave a binding signal of 0.116 E-score.

Consider CCGCGAGA, for which the binding signal is -0.243 E-score.

In turn, ACGGACTC registered a binding signal of -0.223 E-score.

GGATGCTA displayed a binding signal of 0.172 E-score.

In the case of ACCTCGGA, the binding signal was determined as 0.0232 E-score.

AAGGGGCG had a binding signal of -0.409 E-score.

ATTACAGG displayed a binding signal of 0.0672 E-score.

On to ACCCATCG, for which the binding signal was -0.13 E-score.

Take TTATAGAA: the binding signal turned out to be 0.19 E-score.
